The results in this text go back to US20250154260A1 (published 2025).

Experiment [1] has as its target T1, FcgRIIAR extracellular domain protein tagged with biotin (Sino Biological Inc.) (UniProt P12318 34-217, tagged with biotin (site not stated)).
T1 construct: extracellular domain; R subtype of FcγRIIA; also called R subtype of FcγRIIA
T1 sequence (looked up): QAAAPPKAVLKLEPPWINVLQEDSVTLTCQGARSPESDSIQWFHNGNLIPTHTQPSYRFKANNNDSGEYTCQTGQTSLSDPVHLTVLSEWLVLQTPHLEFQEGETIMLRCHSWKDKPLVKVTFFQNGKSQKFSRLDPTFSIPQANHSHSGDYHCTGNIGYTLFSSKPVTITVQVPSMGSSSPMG
As to the kind of experiment: ELISA, second round: MEG coated at 2 µg/mL, biotin-tagged receptor extracellular domain, streptavidin-HRP. Here is the method:
(§1) 100 μL of MEG at an appropriate concentration (2 μg/mL) was added to each well of enzyme-linked plates for coating overnight, the supernatant was discarded, blocking was performed with PBS containing 1% BSA for 2 hours, the plates were washed twice with PBST (PBS containing 0.05% Tween 20), extracellular domain proteins such as FcγRI, FcγRIIAH, FcgRIIAR, FcgRIIIAF, FcgRIIIAV or FcγRIIB tagged with biotin (Sino Biological Inc.) at an appropriate concentration were added separately, incubation was performed at room temperature for 1 hour, and then the supernatant was discarded. The plates were washed three times with PBST. Streptavidin-HRP (BD Biosciences) was added, incubation was performed at room temperature for 1 hour, and biotin protein was detected. The supernatant was removed, and the plates were washed four times with PBST. A color development solution was added for color development for 5-40 minutes, and then the absorbance A650 at 650 nm was measured.

Experiment [2] has as its target T2, FcgRIIIAV extracellular domain protein tagged with biotin (Sino Biological Inc.) (UniProt P08637 in part, tagged with biotin (site not stated)).
T2 construct: extracellular domain; V subtype of FcγRIIIA; also called V subtype of FcγRIIIA
Described as above. As for the experimental part: as §1

Experiment [3] has as its target T3, FcγRI extracellular domain protein tagged with biotin (Sino Biological Inc.) (UniProt P12314 16-292, limits assumed, tagged with biotin (site not stated)).
T3 construct: extracellular domain; Bought reagent; also called FcgRI
T3 sequence (P12314 16-292 limits assumed): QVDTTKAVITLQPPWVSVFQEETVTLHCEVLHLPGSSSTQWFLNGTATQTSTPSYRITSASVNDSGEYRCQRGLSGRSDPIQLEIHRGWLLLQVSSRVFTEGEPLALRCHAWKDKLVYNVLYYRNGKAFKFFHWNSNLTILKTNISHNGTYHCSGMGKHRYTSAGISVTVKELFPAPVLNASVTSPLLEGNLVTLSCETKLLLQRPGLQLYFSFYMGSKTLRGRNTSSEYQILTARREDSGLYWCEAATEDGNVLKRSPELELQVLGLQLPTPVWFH
The description is as above. Here is the method:
as §1

In experiment [4] the target is T4, FcgRIIIAF extracellular domain protein tagged with biotin (Sino Biological Inc.) (UniProt P08637 in part, limits assumed, tagged with biotin (site not stated)).
T4 construct: extracellular domain; F subtype of FcγRIIIA; also called F subtype of FcγRIIIA
The experiment is described as above. As for the experimental part: as §1

The target in experiment [5] is T5, receptor FcγRIIB (on HMC-1 cells) (UniProt P31994 43-310, limits assumed).
T5 construct: whole, on cells; HMC-1 cells (expressing receptor FcγRIIB)
T5 sequence (looked up): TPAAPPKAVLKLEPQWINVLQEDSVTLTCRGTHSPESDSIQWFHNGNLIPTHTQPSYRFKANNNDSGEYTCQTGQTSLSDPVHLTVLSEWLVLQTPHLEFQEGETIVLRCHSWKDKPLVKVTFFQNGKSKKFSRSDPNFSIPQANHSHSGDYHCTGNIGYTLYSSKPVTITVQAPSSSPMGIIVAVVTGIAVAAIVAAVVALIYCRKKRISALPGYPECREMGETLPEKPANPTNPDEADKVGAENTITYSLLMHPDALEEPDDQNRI
Description: flow cytometry, 5 µg protein on 1×10^6 HMC-1 cells expressing FcγRIIB, anti-human IgG Fc-FITC detection. Here is the method:
Assay of binding to receptor FcγRII: 1×10⁶ HMC-1 cells (expressing receptor FcγRIIB) were separately reacted with 5 μg of hIgG, 5 μg of FP4 and 5 μg of MEG protein purified in Example 2 at 4° C. for 1 hour. After washing, 5 μL of anti-human IgG Fc-FITC labeled antibody (CALTAG, CA) was added, and the cells were detected by a flow cytometer.
On the technique in general: In flow cytometry, cells or beads pass a laser one at a time.

B1: fusion protein MEG (Fc fusion)
chain: FTPPTVKILQSSCDGGGHFPPTIQLLCLVSGYTPGTINITWLEDGQVMDVDLSTASTTQEGELASTQSELTLSQKHWLSDRTYTCQVTYQGHTFEDSTKKCADSNPRGVSAYLSRPSPFDLFIRKSPTITCLVVDLAPSKGTVNLTWSRASGKPVNHSTRKEEKQRNGTLTVTSTLPVGTRDWIEGETYQCRVTHPHLPRALMRSTTKTSGPRAAPEVYAFATPEWPGSRDKRTLACLIQNFMPEDISVQWLHNEVQLPDARHSTTQPRKTKGSGFFVFSRLEVTRAEWEQKDEFICRAVHEAASPSQTVQRAVSVNPGK[letters of human IgG1 Fc with P238D (EU numbers) omitted]
notes: Expressed in CHO cells; Has a P to D mutation in Fc-gamma relative to FP4; also called MEG protein
Regarding B1, the binding result in experiment [1] is given as “no binding”; in experiment [2], “no binding”; in experiment [3] it was “no binding”; in experiment [4], “no binding”; in experiment [5], “binds”.
